Laboratory results reported in PubChem BioAssay AID463173 (ICCB-Longwood Screening Facility, Harvard Medical School, 2010).
Hit rate of the full screen: of about 52,000 compounds, about 1,700 (3.3%) were called active. Rule as the data show it: active = survival mostly below about 52% (no sharp cut-off); inactive = mostly above about 56%. Some of the results follow.

What follows are molecules tested on Wild type (assay: growth inhibition of S. aureus wild type versus tarO mutant, primary screen, teichoic acid synthesis inhibitors, RN4220, OD600 (AID 463173)). Settings: S. aureus RN4220 wild type/DeltatarO growth, OD600, 18 h, hits give low values, screened at 18.75 µg/mL (by protocol).

Q: Which survival does the source give for `Cc1ccc2c(c1)c1c(c(=O)n(-c3cccc(Cl)c3)c(=O)n1CC(N)=O)n2C` here?
A: inactive: 64%

Q: With `COc1cc(Nc2nc3c(S(=O)(=O)c4cccc(Cl)c4)nnn3c3ccsc23)cc(OC)c1` as the molecule, how does the survival read?
A: inactive: 126%

Q: With `O=C(Nc1nnc(C(F)(F)F)s1)c1ccccc1` as the molecule, how does the survival read?
A: inactive: 74%

Q: `CCN(CC(O)COc1ccc(OCC(O)CN(CC)C2CCCCC2)cc1)C1CCCCC1` (centres undefined) was tested. Which survival did it give?
A: inactive: 109%

Q: Which survival does the source give for `Cc1ccc(NC(=O)CSc2nc3nccnc3c(=O)n2CCc2c[nH]c3ccccc23)cc1C` here?
A: inactive: 77%

Q: How did the survival turn out when `CCC(=O)N1CCc2cc(S(=O)(=O)NCCC(=O)Nc3ccc(C)cc3C)ccc21` was run?
A: inactive: 84%

Q: How did the survival turn out when `O=C1Nc2ccccc2C1Cc1ccc(Br)cc1` (centres undefined) was run?
A: inactive: 81%

Q: How did the survival turn out when `Cc1ccc(NC(=O)CN2C(=O)c3ccccc3Sc3ccc(C(=O)N4CCOCC4)cc32)cc1C` was run?
A: inactive: 72%

Q: `CC1CCc2noc(NC(=O)c3ccc([N+](=O)[O-])cc3)c2C1` (centres undefined) was tested. Which survival did it give?
A: inactive: 113%

Q: For `Cc1ccnc(SCC(=O)Nc2ccccc2)n1`, which survival is on record?
A: inactive: 102%

Q: `Cc1ccccc1OCCSc1nc2ccc(NC(=O)c3ccco3)cc2s1` was tested. Which survival did it give?
A: inactive: 57%

Q: How did the survival turn out when `COc1ccc(C2C(C#N)=C(N)Oc3cc4c(cc32)OCO4)cc1` (centres undefined) was run?
A: inactive: 110%

Q: Which survival does the source give for `Cc1ccccc1-n1nc(C)c2c1CC(C)(C)CC2=O` here?
A: inactive: 112%

Q: For `CCOc1ccc2nc(Cl)c(CN(Cc3ccco3)C(=O)c3ccco3)cc2c1`, which survival is on record?
A: inactive: 120%

Q: How did the survival turn out when `CC(=O)c1cccc(NC(=O)c2cc3sc(Cl)cc3n2C)c1` was run?
A: inactive: 95%

Q: With `Oc1c(C(c2ccc(Cl)cc2Cl)N2CCN(Cc3ccccc3)CC2)sc2nc(-c3ccco3)nn12` (centres undefined) as the molecule, how does the survival read?
A: inactive: 73%

Q: `CCC(Sc1nc2ccncc2[nH]1)C(=O)Nc1cc(C)ccc1C` (centres undefined) was tested. Which survival did it give?
A: inactive: 125%

Q: For `CCCn1c(=N)c(C(=O)NCc2ccco2)cc2c(=O)n3cc(C)ccc3nc21`, which survival is on record?
A: inactive: 69%

Q: Which survival does the source give for `Cc1ccc(CNC(=O)Cn2ccn(-c3ccc(F)c(F)c3)c(=O)c2=O)cc1` here?
A: inactive: 78%

Q: How did the survival turn out when `CCn1cc(/C=C(\NC(=O)c2ccccc2Cl)C(=O)NCCCn2ccnc2)c2ccccc21` was run?
A: inactive: 121%

Q: Which survival does the source give for `Cc1ccc(C2N3CC4(C)CN2CC(c2ccccc2)(C3)C4=O)cc1` (centres undefined) here?
A: inactive: 93%

Q: How did the survival turn out when `COCCNC(=O)CCCn1c(SCc2ccccc2C)nc2c(sc3ccccc32)c1=O` was run?
A: inactive: 146%

Q: Which survival does the source give for `CCC(=O)Nc1ccc(-c2nc3ncccc3o2)cc1C` here?
A: inactive: 85%

Q: How did the survival turn out when `CCOc1ccc(C(=O)Nc2ccc(C(=O)OCc3cc(=O)n4c(C)csc4n3)cc2)cc1` was run?
A: inactive: 85%

Q: With `Cc1ccc(CNC(=O)c2ccc(N3Cc4ccccc4Oc4ncccc43)s2)cc1` as the molecule, how does the survival read?
A: inactive: 90%

Q: With `CCOCCCNC(=O)C(c1ccc(Cl)cc1)N(Cc1ccc2c(c1)OCO2)C(=O)c1ccc(NC(C)=O)cc1` (centres undefined) as the molecule, how does the survival read?
A: inactive: 117%

Q: With `COc1ccccc1CNS(=O)(=O)c1c(C)nc2sc(C)cn2c1=O` as the molecule, how does the survival read?
A: inactive: 83%

Q: `O=C(O)c1ccc2c(c1)N(Cc1ccc(F)cc1)C(=O)c1ccccc1S2=O` (centres undefined) was tested. Which survival did it give?
A: inactive: 82%

Q: Which survival does the source give for `Cc1cc(NC(=O)c2cc(-c3ccc(F)cc3)on2)nn1Cc1ccc(Cl)cc1` here?
A: inactive: 87%

Q: How did the survival turn out when `COc1ccccc1CNc1ncnc2c1nc1n2CCCC1` was run?
A: inactive: 77%

Q: How did the survival turn out when `Cc1ccc(Cl)cc1NC(=O)c1cc(S(=O)(=O)N2CCOCC2)cn1C` was run?
A: inactive: 84%

Q: With `COC(=O)c1cc(NC(=O)Cn2ncc3c([nH]c4ccccc43)c2=O)cc(C(=O)OC)c1` as the molecule, how does the survival read?
A: inactive: 53%

Q: For `O=C(Cn1c(=O)c2cccn2c2ccc(F)cc21)Nc1cccc(F)c1`, which survival is on record?
A: inactive: 81%

Q: How did the survival turn out when `CCCCN(C)C(=O)C1CCC(Cn2c(=O)[nH]c3ccsc3c2=O)CC1` (centres undefined) was run?
A: active: -2%

Q: With `Cc1ccc2c(CC(=O)Nc3ccc(S(=O)(=O)N4CCCC(C)C4)cc3)coc2c1` (centres undefined) as the molecule, how does the survival read?
A: inactive: 68%

Q: `CC1CCN(S(=O)(=O)c2ccc3c(c2)N(CC(=O)NCCN(C)C)C(=O)CS3)CC1` was tested. Which survival did it give?
A: inactive: 87%

Q: With `O=C(NCCc1ccccc1)c1ccc2c(c1)CCN2S(=O)(=O)c1ccc(Cl)cc1` as the molecule, how does the survival read?
A: inactive: 114%

Q: Which survival does the source give for `CC1(C)CC(N=Cc2c(O)[nH]c(=O)[nH]c2=O)CC(C)(C)N1` here?
A: inactive: 95%

Q: With `OC(c1ccccc1)c1nc2ccccc2n1Cc1c(F)cccc1Cl` (centres undefined) as the molecule, how does the survival read?
A: inactive: 82%

Q: Which survival does the source give for `Fc1ccc(-n2nc(-c3ccccc3)c3cnc4ccccc4c32)cc1Cl` here?
A: inactive: 138%

Q: With `CCOc1ccc(-c2cc3c(=O)n(CC(=O)NCc4ccccc4)ccn3n2)cc1` as the molecule, how does the survival read?
A: inactive: 73%

Q: How did the survival turn out when `Cc1oc2ncnc(N3CCOCC3)c2c1C(=O)Nc1ccc(Br)cc1F` was run?
A: inactive: 129%

Q: `COCCNC(=O)CSc1nc(-c2ccc(C)cc2)[nH]c1-c1ccc(OC)cc1` was tested. Which survival did it give?
A: inactive: 79%

Q: For `O=C(CSc1nc(=O)n(Cc2ccccn2)c2c1CCC2)Nc1cccc(Cl)c1`, which survival is on record?
A: inactive: 71%

Q: How did the survival turn out when `O=C(O)c1ccccc1SC1CC(=O)N(c2ccc(N3CCCCC3)cc2)C1=O` (centres undefined) was run?
A: inactive: 96%

Q: How did the survival turn out when `CC(C)CCNC(=O)C1CCC(CNS(=O)(=O)c2cccc3nsnc23)CC1` (centres undefined) was run?
A: inactive: 131%

Q: How did the survival turn out when `CCc1ccc(NC(=O)CN2C(C(=O)OC)=C(c3ccccc3)c3ccccc3S2(=O)=O)cc1` was run?
A: inactive: 75%

Q: How did the survival turn out when `CCCc1nn2c(=O)cc(COC(=O)c3ccccc3NC(=O)c3ccc(OCC)cc3)nc2s1` was run?
A: inactive: 22%

Q: `Cc1ccc(-c2c3c(=O)n(C)c(=O)n(C)c3c3c(C)nc4ccccc4n23)cc1` was tested. Which survival did it give?
A: inactive: 70%

Q: Which survival does the source give for `Cn1cnnc1SCC(=O)c1ccccc1` here?
A: inactive: 101%

Q: With `COc1ccc(NC(=O)Cn2ccn(-c3ccc(C)c(C)c3)c(=O)c2=O)cc1Cl` as the molecule, how does the survival read?
A: inactive: 87%

Q: Which survival does the source give for `Cc1cc(N2CCN(c3ccc(F)cc3)CC2)n2cnnc2n1` here?
A: inactive: 93%

Q: For `Cc1ccc(Oc2ccc(C#N)c(C#N)c2)c(-n2nc3ccccc3n2)c1`, which survival is on record?
A: inactive: 112%

Q: `Cc1ccc(C(=O)c2cn(Cc3ccccc3)c3ccccc3c2=O)cc1` was tested. Which survival did it give?
A: inactive: 87%

Q: With `Cc1cccc(-c2nc3cc(NC(=O)COc4ccccc4F)ccc3o2)c1` as the molecule, how does the survival read?
A: inactive: 119%

Q: `O=C(CN1CCC(NC(=O)Nc2ccccc2-c2ccccc2)CC1)NCc1ccco1` was tested. Which survival did it give?
A: inactive: 102%

Q: Which survival does the source give for `Cc1ccccc1OCC(=O)Nc1ccccc1C(=O)OCc1cc(=O)n2nc(C3CC3)sc2n1` here?
A: inactive: 69%

Q: For `Cc1cccc(NC(=O)c2oc3ccccc3c2NC(=O)Cc2coc3cc(C)cc(C)c23)c1`, which survival is on record?
A: inactive: 88%

Q: `CN(C)Cc1ccc(C(=O)O)o1` was tested. Which survival did it give?
A: inactive: 103%

Q: Which survival does the source give for `COc1ccc(Cl)cc1NC(=O)CSc1nc(=O)[nH]c2c1CCC2` here?
A: inactive: 110%

Q: Which survival does the source give for `CC(C)Sc1ncc(Cl)c(C(=O)N(Cc2ccc(F)cc2)C2CCS(=O)(=O)C2)n1` (centres undefined) here?
A: inactive: 88%

Q: `Cc1ccc(-c2nn3c(-c4ccccc4)nnc3c3ccccc23)cc1` was tested. Which survival did it give?
A: inactive: 76%

Q: For `O=C(Cc1cccs1)NC1CC(=O)N(c2ccc(Cl)cc2)C1` (centres undefined), which survival is on record?
A: inactive: 76%

Q: `Cc1cccc(C(=O)OCc2cc(=O)n3nc(C4CCCCC4)sc3n2)c1` was tested. Which survival did it give?
A: inactive: 77%

Q: For `O=C(NC1CCCC1)C(c1ccncc1)N(CCCN1CCOCC1)C(=O)c1ccc(-c2ccccc2)[nH]1` (centres undefined), which survival is on record?
A: inactive: 110%

Q: How did the survival turn out when `O=C(NCCC1=CCCCC1)c1ccc2c(c1)N(Cc1ccccc1F)C(=O)c1ccccc1S2(=O)=O` was run?
A: inactive: 88%

Q: Which survival does the source give for `CCc1cccc(N2C(=O)CS(=O)(=O)C23C(=O)N(Cc2ccc(F)cc2)c2ccc(C)cc23)c1` (centres undefined) here?
A: inactive: 127%

Q: Which survival does the source give for `COc1ccc(N2Cc3cccc(C(=O)Nc4ccc(C)c(C)c4)c3C2=O)cc1` here?
A: inactive: 84%

Q: `Cc1ccc(C)c(NC(=O)OCC(C)C)c1` was tested. Which survival did it give?
A: inactive: 103%

Q: `CCOc1ccc(N2CC(NC(=O)Cc3ccccc3)CC2=O)cc1` (centres undefined) was tested. Which survival did it give?
A: inactive: 131%

Q: `Cc1ccc(NC(=O)CN2C(=O)C(C)(C)c3ccccc32)cc1` was tested. Which survival did it give?
A: inactive: 77%

Q: Which survival does the source give for `CCOC(=O)c1c(NC(=O)c2ccc(S(=O)(=O)N3CCCC(C)C3)cc2)sc2c1CCN(C(C)C)C2` (centres undefined) here?
A: inactive: 83%

Q: Which survival does the source give for `Cc1ccc(S(=O)(=O)c2nc(-c3ccco3)oc2SCc2ccccc2Cl)cc1` here?
A: inactive: 65%

Q: How did the survival turn out when `COc1ccc(N2CC(NC(=O)COc3ccccc3C)CC2=O)cc1OC` (centres undefined) was run?
A: inactive: 138%

Q: How did the survival turn out when `CCN1c2cc(C)ccc2-n2cccc2C12CCN(C(=O)Nc1cc(OC)c(OC)c(OC)c1)CC2` was run?
A: inactive: 74%

Q: Which survival does the source give for `Cc1cc(C)cc(NC(=O)C(=O)NC(C)c2ccccc2)c1` (centres undefined) here?
A: inactive: 82%

Q: For `CCOC(=O)c1cc(-c2ccccc2)n(-c2cccc(C(=O)N(CC)c3ccccc3)c2)c1C`, which survival is on record?
A: inactive: 89%

Q: With `CCC(OC(=O)c1cc2sccc2n1C(C)C)C(=O)NCc1ccc(OC)cc1` (centres undefined) as the molecule, how does the survival read?
A: inactive: 117%

Q: For `Cc1ccc(-n2c(SCC(=O)Nc3cccc(F)c3)nc3c(oc4ccccc43)c2=O)cc1C`, which survival is on record?
A: inactive: 101%

Q: Which survival does the source give for `Cc1c2cnn(-c3ccccc3)c(=O)c2c(C)n1C(C)C(=O)Nc1ccc(Br)cc1F` (centres undefined) here?
A: inactive: 78%

Q: `CC(C)c1ccc2oc(-c3cccc(NC(=O)c4ccc5c(c4)OCCO5)c3)nc2c1` was tested. Which survival did it give?
A: inactive: 32%

Q: Which survival does the source give for `Cc1cc(C)cc(-n2ccn3c(CC(C)(C)CC(=O)O)nnc3c2=O)c1` here?
A: inactive: 64%

Q: How did the survival turn out when `C=CCN1C2=NCCCN2c2ccccc21` was run?
A: inactive: 113%

Q: How did the survival turn out when `Cc1ccc2oc3c(c(=O)c2c1)C(c1cccc(O)c1)N(Cc1ccccc1Cl)C3=O` (centres undefined) was run?
A: inactive: 82%

Q: Which survival does the source give for `COc1cccc(NC(=O)C2CCCN2S(=O)(=O)c2ccc3c(c2)C(C)(C)C(=O)N3C)c1` (centres undefined) here?
A: inactive: 109%

Q: How did the survival turn out when `COc1ccc(N2CCN(C(=O)NCc3noc4ccccc34)CC2)cc1` was run?
A: inactive: 79%

Q: `CSc1ccc(CCNC(=O)CCc2c(C)nc3cc(-c4ccccc4)nn3c2C)cc1` was tested. Which survival did it give?
A: inactive: 86%

Q: How did the survival turn out when `CCCOc1ccc(CN(C(=O)c2nc(SC(C)C)ncc2Cl)C2CCS(=O)(=O)C2)cc1` (centres undefined) was run?
A: inactive: 84%

Q: How did the survival turn out when `CCOc1ccc(/C=C/c2nc(C#N)c(Nc3ccc(OC)cc3)o2)cc1` was run?
A: inactive: 86%
